Experimental data published in PubChem BioAssay AID1508623 (National Center for Advancing Translational Sciences (NCATS), 2021).
The campaign covered roughly 48,000 compounds. About 450 (0.94%) were called active. About 19% were inconclusive and are not listed. Calls come from the whole dose curve; as a rule, active = well fitted inhibition curve with a large enough effect; inconclusive = small, poorly fitted or top-dose-only effect; inactive = no such curve, though single readings can be large or run the other way. The list shows a part of the results.

Assay: Primary qHTS for Identification of Small Molecule Inhibitors of Huntingtin Promoter Activity; note: nearly all actives have a fitted effect of over 50% in size
Conditions: HEK293 HTT promoter firefly luciferase reporter (activity 0% = vehicle and -100% = no light), 24 h; series mostly up to 57.5 µM; activity change, negative = inhibition: at the top concentration
How it was run: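 Firefly luciferase readout (Dual-Glo, 10 min RT) after 24 h, 37 °C compound exposure (final up to 57.5 uM) of HEK293 reporter cells cultured 24 h beforehand; PTC124 at 50 uM final as control inhibitor; activity scaled vehicle 0%, zero RLU -100%.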

Activity change, negative = inhibition, inactive:
Cc1c(CCNC(=O)c2ccc(C(C)(C)C)cc2)sc2nc(-c3ccc(F)cc3)nn12 -2.57%
CC1=C(C(=O)Nc2cccnc2)C(c2ccc(C)cc2)n2nc(SCc3ccccc3F)nc2N1 (stereo unspecified) -3.27%
Cc1ccc(NC(=O)C(CC(C)C)N2Cc3ccccc3C2=O)cc1F (stereo unspecified) -11.9%
CNS(=O)(=O)c1cn(CC(=O)N2CCN(c3ccc(C(C)=O)cc3)CC2)cc1S(=O)(=O)NC 2.2%
COC(=O)c1ccc(NC(=O)c2cc(S(=O)(=O)N3CCOCC3)cn2C)cc1 1.33%
Cc1ccccc1OCC(=O)Nc1ccc(S(=O)(=O)N(Cc2ccccc2)c2ccccc2)cc1 -20.9%
CC(=O)Nc1ccc(NS(=O)(=O)c2c(C(=O)N3CCCCCC3)c(C)n(C)c2C)cc1 1.72%
CN(C)c1ccc(NC(=O)Cn2c(SCc3ccc(F)cc3)nc3ccncc32)cc1 -5.82%
Cc1ccc(C(=O)COC(=O)CCC(=O)Nc2ccc(Oc3ccccc3)cc2)cc1 64.8%
COc1ccc(Cn2c(=O)c3oc4ccccc4c3n(CC(=O)Nc3c(C)cccc3C)c2=O)cc1 5.21%
Cc1oc2cc3oc(=O)c(CCC(=O)NCCc4ccccc4F)c(C)c3cc2c1C 16.1%
Cc1ccc(OCCSc2nnc(-c3cccs3)o2)cc1 -24.4% [at 11.5 µM]
CCC(=O)N1c2ccccc2CC1C(=O)NCc1ccc(CC)cc1 (stereo unspecified) -6.99%
Cc1cc(C)cc(N(CC(=O)NCCc2ccc(Cl)cc2)S(=O)(=O)c2c(C)noc2C)c1 -0.783%
Cc1ccc2c(c1)c1c(c(=O)n(-c3ccccc3)c(=O)n1Cc1ccccc1C)n2C -3.41%
CN1CCN(C(=O)c2cnn(-c3ccc(F)cc3F)c2C2CCN(C(=O)OC(C)(C)C)CC2)CC1 0.809%
COc1ccc(NC(=O)Nc2nnc(N3CCCC3)s2)cc1 3.87%
CC(=O)c1ccc(S(=O)(=O)NC(=O)NC2CCCCC2)cc1 13.1%
Cc1ccc2c(=O)cc(C(=O)N(Cc3ccc(C(C)(C)C)cc3)C3CCS(=O)(=O)C3)oc2c1 (stereo unspecified) -2.87%
O=C(c1cc2c(Cl)nc3ccccc3c2s1)N1CCCCC1 2.91%
Oc1ccc(-c2nc3ccc(Cl)cn3c2Nc2ccc(Cl)cc2)cc1 -12.2%
Cc1ccccc1NC(=O)Cn1nc(-c2ccccc2)nc(Cc2ccccc2)c1=O -16.8%
Cc1ccc(CNS(=O)(=O)c2cnc(N)nc2)cc1 -7.83%
COc1ccc(CNC(=O)CSc2nnc(C)c3c(C)n(-c4ccccc4)nc23)c(OC)c1 -28%
CCc1ccc2ncc3c(-c4ccc(C)cc4)nn(CC(=O)NCc4ccccc4)c3c2c1 0%
O=C(CSc1nc2ccccc2n1Cc1cccc(F)c1)NCc1ccccc1 -10.5%
CCOC(=O)c1sc2ncn(CC(=O)Nc3ccc(OC)c(Cl)c3)c(=O)c2c1C -0.431%
COc1ccc(-c2nc3sc(CCNC(=O)C(=O)Nc4ccc(OC)c(OC)c4)c(C)n3n2)cc1 -8.75%
Cc1ccccc1Cn1c2ccccc2c2cnn(CC(=O)NC3CCCCCC3)c(=O)c21 0.792%
CC(C)CCNC(=O)Cn1nc(N2CCN(c3ccccc3)CC2)ccc1=O 10.5%
COc1ccc(OC)c(C2C(C(=O)Nc3ccc(C)cc3)=C(C)Nc3nnnn32)c1 (stereo unspecified) -14.8%
CC[C@@H](C)[C@H](NC(=O)[C@H](CC1CCCCC1)NC(=O)c1ccno1)C(=O)N1CCC2(CCc3ccccc32)CC1 -9.02%
Cc1ccc(NC(=O)c2ccc(CN3CC(=O)N4CCCCC4C3=O)cc2)c(Cl)c1 (stereo unspecified) -37.6%
CN(CC(=O)Nc1cccc(F)c1)S(=O)(=O)c1ccc2c(c1)n(C)c(=O)c(=O)n2C 16.6%
CSc1cccc(NC(=O)c2cc3c(COC(C)=O)cnc(C)c3oc2=O)c1 0.798%
CC(=O)c1cccc(NC(=O)CSc2ncc3c(n2)-c2cc(Cl)ccc2N(Cc2ccccc2)S3(=O)=O)c1 -16%
O=C(CC(c1cccs1)N1Cc2ccccc2C1=O)Nc1ccc(F)cc1 (stereo unspecified) -10.2%
COc1ccc(S(=O)(=O)NCc2nc(-c3ccccc3)no2)cc1 -13.7%
O=C(CN1C(=O)COc2ccc(S(=O)(=O)N3CCCCCC3)cc21)N1CCN(c2ccc(Cl)cc2)CC1 -28.5%
CCOC(=O)c1ccc(NC(=O)CC(C)n2nc(C)cc2C)cc1 (stereo unspecified) 4.76%
COc1cc(NC(=O)Cc2noc3ccccc23)cc(OC)c1OC -21.9%
Cc1cccc(-n2ncc3c(NNC(=O)c4ccccc4Cl)ncnc32)c1 -26.3%
COc1ccc(-c2ccc(=O)n(CC(=O)Nc3cc(OC)ccc3OC)n2)cc1 -23.6%
O=c1[nH]c(C2CCCN(S(=O)(=O)c3ccccc3)C2)nc2c1nnn2Cc1ccccc1Br (stereo unspecified) -24.2%
CCOC(=O)c1cccc(NC(=O)Nc2c(C)n(C)n(-c3ccccc3)c2=O)c1 -16.3%
COc1ccc(CNC(=O)c2cc(-c3ccc(Br)s3)nc3ccccc23)cc1 -8.05%
Cc1cccc(C)c1NC(=O)Cn1cc(C(=O)C2CC2)c2ccccc21 -16.3%
CCCCN(CC)CCCNC(=O)c1cn(C)c(=O)c2c1c1ccccc1n2C -8.12%
CCS(=O)(=O)NCCc1csc2nc(-c3ccc(OC)cc3)nn12 4.05%
CCc1cnc2c(c1SCc1cc(OC)cc(OC)c1)c(=O)n(C)c(=O)n2C -8.73%
Cc1ccc(C)c(CN2C(=O)c3ccccc3S(=O)c3ccc(C(=O)N4CCCCC4)cc32)c1 (stereo unspecified) -5.29%
Cc1ccc(C(=O)C(=O)O)cc1C -2.65%
CSc1ncc(C(=O)NCc2cccc(C)c2)c(-c2ccccc2)n1 -18.7%
COc1ccccc1/C=C/C(=O)Nc1nc2n(n1)C(c1ccc(F)cc1)C=C(c1ccccc1)N2 (stereo unspecified) -24.5%
C=CCc1ccccc1OCCSc1nc(-c2ccccc2F)nc2cc(=O)[nH]n12 -1.07%
COc1ccc(C(=O)c2cn(Cc3ccccc3OC)c3cc4c(cc3c2=O)OCO4)cc1 -0.898%
COc1ccc(CNC(=O)Cn2cccc2C(=O)c2ccccc2C)cc1 25.2%
COC(=O)c1ccc(NC(=O)CC2C(=O)N(c3ccccc3)C(=O)N2Cc2cccs2)cc1 (stereo unspecified) -28.3%
CCN(CC)C(=O)c1sc2c(c1C)c(=O)n(-c1ccc(OC)cc1OC)c(=O)n2CC(=O)Nc1ccccc1 -0.567%
Cc1cccc(NC(=O)c2c(NC(=O)c3ccccc3)sc3c2CCC3)c1 27.4%
Cc1cc(C)cc(-n2ccnc2SCC(=O)Nc2ccccc2F)c1 -30.2%
CSc1ccc(CCNC(=O)c2ccc(-n3c(C)cc4c3CCC(C)C4)cc2)cc1 (stereo unspecified) 38.1%
COc1ccc2c(c1)c(CC(=O)Nc1c(C)cccc1C)c(C)n2C(=O)c1ccc(Cl)cc1 -4.52%
CC(=O)N1CCCC1c1nc2ccccc2n1Cc1cccc(C)c1 (stereo unspecified) -5.91%
Cc1cc(C)cc(NC(=O)CCn2cnc3ccccc3c2=O)c1 -17.4%
CCOc1ccccc1NC(=O)Cn1c(=O)n(-c2ccc(C)cc2)c(=O)c2c1cnn2C -8.08%
COc1ccc(NC(=O)c2ccc(NC(=O)CCS(=O)(=O)c3cccs3)cc2)cc1Cl -2.03%
Cc1ccc(-n2nnnc2SCC(=O)NCCc2ccccc2)cc1C 7.93%
CCOc1ccc(N(CC(=O)OC)S(=O)(=O)c2ccc3c(c2)n(C)c(=O)c(=O)n3C)cc1 -0.246%
CCC(C)NC(=O)Cn1c(=O)n(-c2ccc(Cl)cc2)c(=O)c2c3c(sc21)CCCC3 (stereo unspecified) -9.63%
Cc1ccc(C)c(N2CCN(C(=O)c3c(C)oc4nc(C)nc(N5CCOCC5)c34)CC2)c1 -17.3%
CCCc1nnc(SCc2cc(=O)c3c(C)cc(C)cc3[nH]2)n1C -2.32%
CCc1nnc(NC(=O)CSc2nccn2Cc2ccc(Cl)cc2)s1 5.2%
CCCN[C@H]1CCc2nc(N)sc2C1
O=C(NCc1cccc(Cl)c1)c1cnc(N2CCOCC2)c2ccccc12 -11.2%
CCc1ccc(CNC(=O)Cn2nc(C)c3nn(-c4ccc(Cl)cc4)c(C)c3c2=O)cc1 0.191%
COCCNC(=O)c1ccc2c(c1)ncn2-c1cc(C)ccc1OC -3.85%
Cn1cccc1-c1cc2n(n1)CCC(=O)N2CCCC(=O)NCc1cccc(Cl)c1 7.55%
Cc1ccc(C(=O)Nc2cc(-c3cn4cccnc4n3)ccc2C)cc1C 0.475%
Cc1nnc(NC(=O)CSc2nccn2Cc2ccccc2)s1 -12.7%
CSCCC(NS(=O)(=O)c1ccc2c(c1)oc(=O)n2C)C(=O)NCc1ccc(Cl)cc1 (stereo unspecified) -1.49%
O=C(Nc1cc(-c2cccc(Cl)c2)nn1-c1ccccc1)c1ccccc1F -6.89%
CC(C)CCNc1nc(Nc2ccccc2)c2cnn(C)c2n1 -22.3%
NCC[C@H](O)C(=O)N[C@@H]1C[C@H](N)[C@@H](O[C@H]2O[C@H](CN)[C@@H](O)[C@H](O)[C@@H]2O)[C@H](O)[C@@H]1O[C@H]1O[C@H](CO)[C@@H](O)[C@H](N)[C@@H]1O -4.09% [at 0.739 µM]
O=C(Cc1ccc(Cl)cc1)NCCc1csc2nc(-c3ccccc3F)nn12 -8.95%
CCC(C)(C)NC(=O)C(NS(=O)(=O)c1cccs1)c1ccccc1 (stereo unspecified) -18%
Cc1cc(F)ccc1Nc1nc2ccc(Cl)cc2n2cnnc12 -9.73%
CCOC(=O)c1ccc(-n2c(CCC(=O)O)ccc2-c2ccccc2)cc1O 8.48%
CC(CC(=O)Nc1ccc(F)cc1)S(=O)(=O)c1cc2c3c(c1)CCN3C(=O)CC2 (stereo unspecified) -15.5%
Cc1cc(=O)oc2cc(O)ccc12
COc1ccc(N2CCN(C(=O)C(CC(C)C)NS(=O)(=O)c3ccc4nc(C)sc4c3)CC2)cc1 (stereo unspecified) -21.3%
CNc1ccc(-c2nc(-c3ccncc3)no2)cc1[N+](=O)[O-] 62%
O=C(NC1CCCCC1)c1ccc2c(c1)N(Cc1cccc(Cl)c1)C(=O)c1ccccc1S2(=O)=O -9.59%
Cc1ccc(CNc2cc(C)nc3nc(-c4ccc(C)cc4)nn23)cc1 -3.85%
COC(=O)c1ccccc1NC(=O)CSc1nc2ccccc2nc1Cc1ccc(F)cc1 -2.23%
Cc1cccc(NC(=O)Cn2c(=O)n(CC3CCC(C(=O)NCCc4ccccc4)CC3)c(=O)c3ccccc32)c1 (stereo unspecified) -6.92%
